Data: publication PMC6919601, “Identification of Plasmodium dipeptidyl aminopeptidase allosteric inhibitors by high throughput screening” (PLoS ONE, 2019)
Among all 110,000 compounds or so, about 230 (0.21%) showed an effect of 50% or more. The list shows a part of the results.

What follows are molecules tested against DPAP1 (Plasmodium falciparum, UniProt Q8IIJ9) (assay: primary screen, percent inhibition; read by cleavage of a fluorogenic dipeptide substrate; higher = more effect of the substance).
Chain of DPAP1 (Q8IIJ9 whole entry, looked up): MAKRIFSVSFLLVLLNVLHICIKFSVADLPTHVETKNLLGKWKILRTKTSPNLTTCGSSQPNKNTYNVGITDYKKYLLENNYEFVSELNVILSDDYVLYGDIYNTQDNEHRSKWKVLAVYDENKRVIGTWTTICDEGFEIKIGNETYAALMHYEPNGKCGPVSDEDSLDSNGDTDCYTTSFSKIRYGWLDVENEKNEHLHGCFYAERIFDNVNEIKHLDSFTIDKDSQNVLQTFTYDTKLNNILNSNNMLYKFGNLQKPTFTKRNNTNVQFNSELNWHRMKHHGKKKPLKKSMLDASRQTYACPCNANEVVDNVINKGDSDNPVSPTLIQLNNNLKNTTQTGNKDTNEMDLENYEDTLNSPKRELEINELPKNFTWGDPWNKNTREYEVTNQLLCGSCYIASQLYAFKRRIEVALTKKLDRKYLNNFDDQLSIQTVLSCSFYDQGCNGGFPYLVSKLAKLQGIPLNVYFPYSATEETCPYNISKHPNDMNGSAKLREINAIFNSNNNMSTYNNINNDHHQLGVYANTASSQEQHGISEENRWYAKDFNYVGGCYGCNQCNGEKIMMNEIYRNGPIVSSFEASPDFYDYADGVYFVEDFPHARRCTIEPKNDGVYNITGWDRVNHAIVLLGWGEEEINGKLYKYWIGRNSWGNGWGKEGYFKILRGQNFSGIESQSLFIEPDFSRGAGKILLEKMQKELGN
Design: species or system P. falciparum D10 trophozoite lysates; single well
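Further: 30 min substrate incubation versus DMSO and 10 µM JCP410 controls.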

Structure (SMILES) | % Inhibition @ 10 uM [%]
COc1ccc(Nc2ccc(Cl)cc2)c(C(=O)O)c1 | -6.36
Cc1ccc(NS(=O)(=O)c2ccc(Cl)cc2)c(C)c1 | 0.912
O=C(CCCn1c2ccccc2c2cnnc(O)c21)NCc1cccc(Cl)c1 | 1.38
CC(C)c1ccc2c(c1)[C@H]1OCC[C@H]1[C@@H](c1cccs1)N2 | -0.872
COc1ccc(-c2noc(CN(C)S(=O)(=O)c3ccc(Br)cc3)n2)cc1 | 2.21
CCc1ccc(C2C(C#N)=C(N)Oc3c2c(C)nn3-c2ccc(C)cc2)cc1 (stereo not drawn) | 6.42
Cn1nc(C(=O)N(Cc2ccco2)C2CCCCC2)c2c1-c1ccccc1OC2 | 3.3
Cc1ccc(CSc2nnc(-n3c(=O)c(C#N)cc4c(=O)n5ccccc5nc43)s2)cc1 | -0.551
Cc1cccc(C2C(C#N)=C(N)Oc3[nH]nc(-c4ccc5c(c4)OCO5)c32)c1 (stereo not drawn) | 2.38
N#CC1=C2SCN(C3CCCCC3)CN2C(=O)CC1c1cccc2ccccc12 (stereo not drawn) | 53.8
CSCCC(NC(=O)c1ccc(C#CC(C)(C)O)cc1)C(=O)O (stereo not drawn) | -2.42
CCC(=O)N1C(C(=O)NCCCN2CCCCC2)CSC12CCN(C)CC2 (stereo not drawn) | 3.49
Cc1nc2c(C(=O)NCc3ccc4c(c3)OCO4)cnn2c(O)c1Cl | -2.14
CC1NC(C(=O)O)Cc2c1[nH]c1ccccc21 (stereo not drawn) | -4.02
Cc1ccc(C(=O)CCC(=O)Nc2ccccc2F)cc1 | -1.61
O=C(O)c1ccccc1C(=O)NCCc1ccc(Cl)cc1 | 1.16
Cc1ccc2oc(O)cc(=O)c2c1O | -3.53
CC(NC(=O)C(c1ccccc1)c1ccccc1)c1ccccc1 (stereo not drawn) | 3.74
COc1ccccc1CNS(=O)(=O)c1ccc2oc(C(=O)O)c(C)c2c1 | 2.59
O=c1c([N+](=O)[O-])cn(-c2ccc(Cl)cc2)c2cc(Cl)ccc12 | -2.7
CCC(Sc1ccccn1)C(=O)Nc1ccc(Cl)cn1 (stereo not drawn) | 10
COC(=O)C1=C(C)N=c2s/c(=C\c3c(F)cccc3Cl)c(=O)n2C1c1cccs1 (stereo not drawn) | 1.67

Structure (SMILES) | % Inhibition @ 10 uM [%]
CC(Cc1ccccc1)NCc1ccco1 (stereo not drawn) | 3.15
CCOc1ccc(C2CC(=O)NC(SC)=C2C#N)cc1 (stereo not drawn) | 1.13
Nc1ccc(C2=CCCc3nonc32)c2nonc12 | 2.8
CCOc1ccc(C2CC(=O)Nc3nc(SCc4ccc(F)cc4)nc(O)c32)cc1OC (stereo not drawn) | -1.11
Cc1ccc(S(=O)(=O)n2nc(-c3ccccc3)nc2NCc2ccco2)cc1 | 2.31
COc1cccc(NC(=O)c2cc(F)c(Cl)nc2Cl)c1 | 0.0999
O=C1c2ccc(F)cc2C(=O)N1c1ccncc1 | 2.8
CCCNCCOC(c1ccccc1)c1ccccc1 | 0.343
Cc1cc(C)c(NC(=O)CSc2nc(N)cc(O)n2)c(C)c1 | -5.23
COc1ccc(Cl)cc1C(=O)N1CC(C)N(C(=O)c2cc(Cl)ccc2OC)CC1C (stereo not drawn) | 1.28
COc1cccc(CN2CCN(Cc3ccccc3F)CC2)c1OC | 3.8
CCOC(=O)c1ccc(Oc2coc3cc(O)ccc3c2=O)cc1 | 2.31
Cn1c2ccccc2c2c(C(=O)NC3CCCCC3)cn(C3CCCCC3)c(=O)c21 | -3.39
COc1ccc(OC)c(C2C3=C(O)CCCC3=Nc3ccc4ncccc4c32)c1 (stereo not drawn) | 2.36
CCc1c(C)sc(NC(=O)c2ccc(C(C)C)cc2)c1C(N)=O | 15.9
CCSc1nc(-c2ccc(C)cc2)nc2c1Cc1c(CO)cnc(C)c1O2 | -1.11
O=C(NCCCN1CCN(C2CCCCC2)CC1)C1CCN(c2nnc(-n3cccc3)s2)CC1 | 1.15
O=C(O)c1c(CNCCCN2CCCC2=O)c2ccccc2n1Cc1ccccc1Cl | 0.277
Cc1cc(C)c(OCC(=O)N(Cc2cccc(F)c2)C2CCS(=O)(=O)C2)c(C)c1 (stereo not drawn) | -4.95
CN1CCN(Cc2ccccc2Cl)CC1 | -5.57
C=C(C)CN(CC)Cc1ccncc1 | -4.14
CC1=C(C(=O)Nc2cccnc2)C(c2ccccc2F)n2nnnc2N1 (stereo not drawn) | 0.279

Structure (SMILES) | % Inhibition @ 10 uM [%]
N#CCNC(=O)C1(NC(=O)N2CCN(c3ccccn3)CC2)CCCCC1 | -1.41
CC(C)N(Cc1ccccc1)C(=O)c1cccs1 | 4.03
CCc1ccc(-n2nc(C)c3c(C(F)(F)F)cc(=O)n(CC(=O)NCc4ccc(F)cc4)c32)cc1 | 1.63
COc1cccc(NC(=O)CN(C)S(=O)(=O)c2ccc(F)cc2)c1 | -6.02
Cc1ccc(OCC(=O)N(Cc2sccc2C)C2CCS(=O)(=O)C2)cc1C (stereo not drawn) | -1.11
CCOc1c(Cl)cc(C(=O)N(Cc2ccco2)C2CCS(=O)(=O)C2)cc1Cl (stereo not drawn) | 0.569
CCn1cc(C(=O)O)c(=O)c2cc(F)c(N3CCOCC3)cc21 | -2.2
CN(Cc1ccccc1)c1ncnc2c1nc1n2CCCCC1 | -0.0255
COc1cc(C(=O)N(Cc2ccccc2)Cc2ccccc2)cc(OC)c1OC | -0.85
O=C(NCc1ccco1)c1nc(CS(=O)(=O)c2ccccc2)no1 | -2.05
CCn1c(C(=O)N2CCc3ccccc3C2)cc2oc3ccccc3c21 | -3.34
O=C(Nc1ccc(Cl)cc1)C(=O)NC1CCCCC1 | 1.29
OCC1CCCN1Cc1cc(F)ccc1F (stereo not drawn) | -0.0648
CC(=O)N/C(=C\c1ccccc1)C(=O)NCc1ccc(C)cc1 | -0.256
CC1CC(C)CN(C(=O)Cn2c(=O)n(CCC(=O)NCc3ccccc3)c(=O)c3sccc32)C1 (stereo not drawn) | -8.56
O=C(O)COc1ccc(C23CC4CC(CC(C4)C2)C3)cc1 | -2.62
Brc1ccc(OCCCn2ccnc2)cc1 | -3.42
CCOC(=O)c1[nH]nc2c1CCCC2 | 6.13
O=C(Nc1cccc(Cl)c1)N1CCCCC1 | -2.55
Cc1ccc(C(=O)Nc2ccc(S(=O)(=O)N3CCOCC3)cc2)cc1Br | 0.245
CN1CCCC1c1cccnc1N (stereo not drawn) | -0.744
Cc1ccc(C(=O)COC(=O)c2cc(O)nc3ccccc23)cc1C | 4.95
